Results reported in publication PMC4336329 (PLoS ONE, 2015).
Out of some 310,000 compounds screened, about 2,200 (0.71%) showed an effect of 50% or more. The effect is printed as a negative number. The list shows a part of the results.

These compounds were tested against human ether-à-go-go-related gene (hERG) potassium channel (human, UniProt Q12809) (assay: primary screen, population patch clamp on CHO cells stably expressing hERG).
Sequence of human ether-à-go-go-related gene (hERG) potassium channel (Q12809 whole entry, looked up): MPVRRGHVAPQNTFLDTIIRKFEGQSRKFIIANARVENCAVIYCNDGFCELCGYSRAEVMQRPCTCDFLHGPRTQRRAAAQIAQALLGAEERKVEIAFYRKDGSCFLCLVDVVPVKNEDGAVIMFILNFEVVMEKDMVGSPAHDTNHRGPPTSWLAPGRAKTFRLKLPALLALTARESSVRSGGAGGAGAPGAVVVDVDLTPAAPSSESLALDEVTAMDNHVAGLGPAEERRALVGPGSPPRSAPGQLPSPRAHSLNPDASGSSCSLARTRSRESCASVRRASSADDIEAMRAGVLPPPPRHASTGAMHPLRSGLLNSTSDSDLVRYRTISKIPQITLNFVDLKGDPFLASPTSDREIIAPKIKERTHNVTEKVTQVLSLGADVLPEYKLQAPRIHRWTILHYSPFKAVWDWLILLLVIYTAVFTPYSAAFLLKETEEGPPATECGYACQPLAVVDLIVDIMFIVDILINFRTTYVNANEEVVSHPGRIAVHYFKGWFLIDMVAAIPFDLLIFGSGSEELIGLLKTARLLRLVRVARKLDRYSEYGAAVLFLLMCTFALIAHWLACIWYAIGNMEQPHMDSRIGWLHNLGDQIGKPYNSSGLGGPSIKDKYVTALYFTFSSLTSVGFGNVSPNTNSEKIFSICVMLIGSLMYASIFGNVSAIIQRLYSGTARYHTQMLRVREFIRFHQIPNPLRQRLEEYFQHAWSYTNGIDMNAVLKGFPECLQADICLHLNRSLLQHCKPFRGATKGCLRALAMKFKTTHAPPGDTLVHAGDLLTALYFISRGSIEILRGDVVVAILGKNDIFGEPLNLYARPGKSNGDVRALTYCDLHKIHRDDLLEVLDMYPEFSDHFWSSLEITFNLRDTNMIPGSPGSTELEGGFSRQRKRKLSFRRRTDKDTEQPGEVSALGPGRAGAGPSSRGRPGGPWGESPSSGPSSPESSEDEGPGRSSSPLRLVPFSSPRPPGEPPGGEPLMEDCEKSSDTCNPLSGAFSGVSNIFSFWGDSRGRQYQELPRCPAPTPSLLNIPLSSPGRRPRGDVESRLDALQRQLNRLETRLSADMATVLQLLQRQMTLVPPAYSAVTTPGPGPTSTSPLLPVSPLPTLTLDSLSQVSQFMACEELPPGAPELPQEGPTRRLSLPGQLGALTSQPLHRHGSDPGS

| Compound | hERG current change (%, negative = inhibition) at 1uM [%] |
| --- | --- |
| COC(=O)CSc1nc2ccccc2nc1SCC(=O)OC | 14 |
| Cc1ccc(NC(=O)CN(C)C(=O)CCOc2ccccc2C)cc1 | 4.67 |
| CN1OC(c2ccccc2)=C(CO)C1c1ccccc1 (centres unmarked) | 5.08 |
| CC1(CCc2ccccc2)NC(=O)N(CC(=O)N2CC(=O)Nc3ccccc32)C1=O (centres unmarked) | 6.08 |
| COCCCn1c(=O)c2ccccc2n(Cc2ccccc2)c1=O | 6.88 |
| CC(C)OC(=O)CN1C(=O)C(C)(C)Oc2ccc(C(=O)NC3CC3)cc21 | 0.145 |
| CCCC(=O)N1CCc2cc(-c3nc(N)sc3C)ccc21 | 13.2 |
| CSc1cccc(NC(=O)NCc2cccc(CNC(=O)Nc3cccc(SC)c3)c2)c1 | 12.5 |
| COc1cnc(-c2ccccn2)nc1Sc1ccc(F)cc1 | 10.3 |
| COC(=O)C1=C(C(=O)c2ccc(C)cc2)C(c2ccccc2)n2nnnc2N1 (centres unmarked) | -5.72 |
| COc1ccccc1-c1nnc(SCC(=O)N2CC(C)CC(C)C2)o1 (centres unmarked) | 8.62 |
| NC(=O)N/N=C/C=C/c1ccc(F)cc1 | 12.3 |
| CCN(CC)S(=O)(=O)c1ccc(C(=O)Nc2nnc(CSC)o2)cc1 | 12.8 |
| O=C(c1ccc(S(=O)(=O)N2CCOCC2)cc1)N(c1ccccn1)C1CCCCC1 | -3.26 |
| CC(C)(C)OC(=O)N[C@H](Cc1ccccc1)C(=O)N1CCC(C(=O)O)CC1 | 5.76 |
| CCN1CCc2c(OCC(=O)Nc3ccc(C)cc3)cccc2C1=O | 7.85 |
| COCCNc1nc(C)c(C(C)=O)s1 | 9.62 |
| O=C(/C=C/c1ccc(F)cc1)NCc1cccs1 | 5.83 |
| CCCCNC(=O)Cc1ccc(Br)cc1 | 13.4 |
| Cc1ccccc1C(=O)Nc1ccc2c(c1)OCO2 | 9.21 |
| CN(c1ccc(C(=O)Nc2ccccc2C(=O)N2CCCC2)cc1)S(C)(=O)=O | 13.6 |
| Clc1ccccc1N=C1SCCS1 | 10.4 |
| CC(C)(C)C(=O)Nc1cccc(-c2nc3ccccc3[nH]2)c1 | 6.39 |

| Compound | hERG current change (%, negative = inhibition) at 1uM [%] |
| --- | --- |
| Cc1ccccc1CN1CCNC(=O)C1CC(=O)O (centres unmarked) | 12.5 |
| COc1cc(CCc2ccc3c(c2)OCO3)oc(=O)c1 | 12.8 |
| O=C(CN1CCCC1)Nc1ccc(NC(=O)Nc2ccccc2Cl)cc1 | -4.47 |
| C=CCn1c(O)c(C(CC)=NCCN2CCN(C(=S)NC)CC2)c(=O)[nH]c1=O | 8.41 |
| Br.COc1ccc(C(=O)CN(Cc2ccccc2)C2=NCCS2)cc1 | -0.202 |
| COC(=O)c1ccccc1CON1C(=O)C(C)(C)N(OCc2ccccc2C(=O)OC)C(=O)C1(C)C | 7.4 |
| NC(=O)CC(NC(=O)Cc1ccc(Br)cc1)c1ccc(NCCc2ccccc2F)c([N+](=O)[O-])c1 (centres unmarked) | 5.23 |
| O=c1[nH]c2cc3c(cc2cc1CN(Cc1ccc2c(c1)OCO2)Cc1nnnn1CC1CCCO1)OCO3 (centres unmarked) | 10.4 |
| CC1CCN(S(=O)(=O)c2cnc(Cl)c(Br)c2)CC1 | 6.56 |
| Cc1cc(C)nc(SCC(=O)n2c3c(c4ccccc42)CCCC3)n1 | 10.3 |
| Cc1csc(N(C(=O)CCNC(=O)c2ccc([N+](=O)[O-])cc2)c2ccccc2)n1 | 0.189 |
| CC1CN(C(=O)c2cnn3c(C(F)F)cc(-c4ccccc4)nc23)CC(C)O1 (centres unmarked) | 4.52 |
| O=c1c2ccccc2nc(/C=C/c2cc(Br)ccc2O)n1CCO | 4.82 |
| Clc1ccc(/C=N/c2c(-c3ccco3)nc3ccccn23)cc1 | 9.94 |
| COc1cc(-c2c(-c3ccc4c(c3)OCO4)noc2C)ccc1F | 10 |
| Cc1c(=O)n(OCc2ccccc2)c2ccccc2[n+]1[O-] | 9.46 |
| CC1CN(C(=O)c2cccc(S(=O)(=O)Nc3cc(Cl)ccc3Cl)c2)CC(C)O1 (centres unmarked) | 6.75 |
| Cc1ccc(NC(=O)C(C)OC(=O)c2n[nH]c3ccccc23)cc1 (centres unmarked) | 7.35 |
| Cn1cccc1C1C=C(c2ccc(C(C)(C)C)cc2)Nc2ncnn21 (centres unmarked) | 1.34 |
| O=C(Nc1ccc(F)c(F)c1)c1ccccc1 | 11.8 |
| CCOC(=O)C(NC(=O)CC)(Nc1ccc(S(=O)(=O)Nc2ncccn2)cc1)C(F)(F)F (centres unmarked) | 20.3 |
| Cc1ccc(C(OCC(O)CNCc2ccc(F)cc2)c2ccccc2)cc1.O=C(O)C(=O)O (centres unmarked) | -75.4 |
| COc1cccc(C(=O)N(Cc2nc(-c3ccc(C)cc3)no2)C(C)C)c1 | 8.61 |

| Compound | hERG current change (%, negative = inhibition) at 1uM [%] |
| --- | --- |
| O=C(C(=O)N1CCc2ccccc2C1)c1c[nH]c2ccccc12 | 11.1 |
| Cl.OC(COc1c(F)cc(Br)cc1F)CN1CCN(c2ccc(F)cc2)CC1 (centres unmarked) | 2.42 |
| NNC(=O)C1CC(O)CN1S(=O)(=O)c1ccc2ccccc2c1 (centres unmarked) | 16.8 |
| O=C(CSc1n[nH]c(=O)n1-c1cccnc1)Nc1ccccc1 | 10.3 |
| CCOC(=O)CSC(CC)C(=O)Nc1nnc(CC)s1 (centres unmarked) | 3.34 |
| CC1(C)C=Cc2c(c3ccccc3[nH]c2=O)O1 | -0.433 |
| CCOc1ccccc1C(=O)N(CN1CCCC1=O)c1cccc(Cl)c1 | 10.9 |
| Cc1ccc(S(=O)(=O)Nc2cc(Cl)c(O)cc2C)cc1 | 1.11 |
| Cc1ccc(C)n1-c1ccc(N2CCOCC2)cc1 | 0.619 |
| S=C(NCc1ccc(Cl)cc1)Nc1ccncc1 | 7.06 |
| Cc1cc(NS(=O)(=O)c2ccc(CC(C)C)cc2)no1 | 10.9 |
| Cc1ccc(C(=O)NC2CC3CCCC(C2)N3C(=S)NCc2ccco2)cc1 (centres unmarked) | 5.13 |
| COc1ccc(C(=O)COC(=O)c2ccc3c(c2)NC(=O)CS3)c(OC)c1 | -0.411 |
| O=C(NCc1cccnc1)c1cccc(S(=O)(=O)Nc2cccc(Cl)c2)c1 | 4.29 |
| CC1C(c2cccs2)=[N+]([O-])C(C)(C(=O)c2ccc(F)cc2)N1O (centres unmarked) | 14.4 |
| COc1ccccc1NC(=O)c1cc(S(=O)(=O)N2CCCCCC2)ccc1F | 16.8 |
| O=S(=O)(Cc1ccccc1)N1CCN(C2Cc3ccccc3C2)CC1 | 5.02 |
| Clc1ccc2c(NCc3ccco3)ncnc2c1 | -1.55 |
| COc1cc(OC)c2c(c1)O[C@@H](c1ccc(OC)c(OC)c1)[C@H](O)C2 | 13.2 |
| COc1ccccc1N1CCN(C(=O)COc2cccc(C)c2C)CC1 | 2.97 |
| O=C(Nc1cccc(C(F)(F)F)c1)N1CCC(c2nc(-c3ccc(F)cc3)no2)CC1 | 2.11 |
| O=C(Nc1ccc(C(F)(F)F)cc1)c1cc(-c2cccnc2)nc2ccc(Br)cc12 | -15.5 |
| CN(C(=O)CN(C)S(=O)(=O)c1ccc(F)cc1)c1c(N)n(Cc2ccccc2)c(=O)[nH]c1=O | -4.29 |

| Compound | hERG current change (%, negative = inhibition) at 1uM [%] |
| --- | --- |
| O=C(c1cc2ccccc2cc1O)N1CCN(c2ccc([N+](=O)[O-])cc2)CC1 | -15.1 |
| CSc1nc(=S)cc(C)[nH]1 | 8.94 |
| CCCCOc1ccc(S(=O)(=O)NC(=O)NCc2ccc(OCCC)cc2)cc1 | 8.73 |
| CCCCn1c(=O)[nH]c(=O)c2c(C(=O)OCC)cc(-c3ccc(OC(F)F)cc3)nc21 | 11.4 |
| COc1ccc(NC(=O)C2CCCN2C(=O)Nc2cccc(F)c2)cc1 (centres unmarked) | 5.88 |
| CN(C)C(=O)COC(=O)c1cccc(CN2C(=O)c3ccccc3C2=O)c1 | 16.5 |
| Cc1cc(OC(C)C(=O)NCc2ccccn2)c2c(C)cc(=O)oc2c1 (centres unmarked) | 16.2 |
| COc1ccccc1C(=O)Nc1ccnn1C1CCN(C/C=C/c2ccccc2)CC1 | -85.6 |
| COc1ccccc1C(=O)NC(CCSC)C(=O)N1CCN(C(C)=O)CC1 (centres unmarked) | 11.3 |
| O=C(NCc1ccccn1)c1ccc(NS(=O)(=O)c2ccccc2)cc1 | 1.45 |
| CC(C)N(C(=O)CN1CCN(S(=O)(=O)c2ccc(Br)s2)CC1)C(C)C | 7.73 |
| O=C(OC(C(=O)c1c[nH]c2ccccc12)c1ccccc1)c1cnccn1 (centres unmarked) | 11.8 |
| COc1ccccc1NS(=O)(=O)c1cc(NC(=O)CCNC(C)=O)ccc1N1CCCCC1 | 7.37 |
| COC(=O)c1sc2cnccc2c1N | 10.7 |
| O=C(NCc1ccccc1C(F)(F)F)C1CCC(=O)N(CCCc2ccccc2)C1 (centres unmarked) | 7.23 |
| COC(=O)c1cc(Br)c(=O)n(-c2ccccn2)c1 | 12.5 |
| CCOc1ccc(NC(=O)CN(C)C(=O)c2cc3c(s2)CCCCC3)cc1OCC | 17.5 |
| Cc1ccc(NC(=O)CSc2nc3ccccc3c(=O)n2CCCN2CCCCC2)cc1Cl | -29.6 |
| COc1ccc([C@H]2C=C3CN(C(=O)OC(C)(C)C)S(=O)(=O)[C@H]3C[C@H]2OC(=O)c2ccc(C(F)(F)F)cc2)cc1 | 9.57 |
| CCCn1nc(NC(=O)C2CCCO2)c2cc3cc(C)ccc3nc21 (centres unmarked) | 10.2 |
